{"source": "paper PMC6919601", "about": "“Identification of Plasmodium dipeptidyl aminopeptidase allosteric inhibitors by high throughput screening” (PLoS ONE, 2019)", "note": "Hit rate of the full screen: of about 110,000 compounds, about 230 (0.21%) showed an effect of 50% or more. This is one part of the list.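 Note: 30 min substrate incubation versus DMSO and 10 µM JCP410 controls.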"}
{"biological_target": "DPAP1 (Plasmodium falciparum, UniProt Q8IIJ9)", "sequence (Q8IIJ9 whole entry, looked up)": "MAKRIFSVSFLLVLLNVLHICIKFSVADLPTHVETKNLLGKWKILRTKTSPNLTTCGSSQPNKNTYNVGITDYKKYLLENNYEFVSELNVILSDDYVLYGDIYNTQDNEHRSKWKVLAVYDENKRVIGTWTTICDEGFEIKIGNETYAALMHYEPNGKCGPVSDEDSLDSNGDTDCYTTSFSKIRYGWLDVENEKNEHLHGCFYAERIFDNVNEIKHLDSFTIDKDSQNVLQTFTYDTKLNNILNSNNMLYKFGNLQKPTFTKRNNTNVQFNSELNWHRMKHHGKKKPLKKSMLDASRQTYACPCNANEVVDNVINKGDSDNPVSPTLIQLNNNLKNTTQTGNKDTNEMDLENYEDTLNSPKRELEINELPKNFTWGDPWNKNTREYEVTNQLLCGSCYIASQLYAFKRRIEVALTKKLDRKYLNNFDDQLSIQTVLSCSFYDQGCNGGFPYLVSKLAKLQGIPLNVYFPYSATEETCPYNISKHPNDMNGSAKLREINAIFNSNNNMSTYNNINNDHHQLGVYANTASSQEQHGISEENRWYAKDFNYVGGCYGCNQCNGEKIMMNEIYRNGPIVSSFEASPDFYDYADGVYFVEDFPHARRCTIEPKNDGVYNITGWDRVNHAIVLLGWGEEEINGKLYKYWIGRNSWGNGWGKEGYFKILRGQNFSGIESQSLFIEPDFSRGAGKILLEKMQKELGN", "assay": "primary screen, percent inhibition; read by cleavage of a fluorogenic dipeptide substrate; higher = more effect of the substance", "set-up": "species or system P. falciparum D10 trophozoite lysates; single well", "units": {"% Inhibition @ 10 uM": "%"}}
{"smiles": "COc1cc(C(=O)N2C3=C(CCCC3)C(=O)NC23CCCCC3)cc(OC)c1OC", "% Inhibition @ 10 uM": -6.85}
{"smiles": "Cc1ccc(S(=O)(=O)c2cc3c(=O)n4cccc(C)c4nc3n(CCO)c2=N)cc1", "% Inhibition @ 10 uM": 8.09}
{"smiles": "COc1ccccc1CNC(=O)c1sc2nc3n(c(=O)c2c1C)CCCCC3", "% Inhibition @ 10 uM": -6.34}
{"smiles": "CC12CC3CC(C)(C1)CC(OCCNC(=O)c1noc4c1COc1ccccc1-4)(C3)C2", "% Inhibition @ 10 uM": 49}
{"smiles": "O=C(Cc1c(O)nc2ccccc2c1O)NCc1ccccc1", "% Inhibition @ 10 uM": -1.37}
{"smiles": "O=C(O)c1ccc2c(c1)C(=O)N(CCO)C2=O", "% Inhibition @ 10 uM": -5.62}
{"smiles": "O=C1c2ccccc2C(O)N1Cc1ccco1", "note": "(stereo not shown)", "% Inhibition @ 10 uM": 0.494}
{"smiles": "CCOc1cc(C2c3c(oc4ccccc4c3=O)C(=O)N2c2nccs2)ccc1O", "note": "(stereo not shown)", "% Inhibition @ 10 uM": 0.189}
{"smiles": "COCCNC(=O)c1ccc(CSc2nc3ccncc3n2Cc2ccc(C)cc2)cc1", "% Inhibition @ 10 uM": 8.62}
{"smiles": "COc1cc(C)ccc1OCCn1cccc1/C=C1\\C(=N)N2N=C(N3CCCC3)SC2=NC1=O", "% Inhibition @ 10 uM": 3.32}
{"smiles": "Cc1cccc(CN(C)C2CCN(C)CC2)c1", "% Inhibition @ 10 uM": 4.67}
{"smiles": "COc1cccc(N(CC(=O)N2CCOCC2)S(=O)(=O)c2ccc(C)cc2)c1", "% Inhibition @ 10 uM": 10.7}
{"smiles": "Cc1ccc(-n2nnc(-c3nsc(NC(=O)c4cccs4)n3)c2C)cc1C", "% Inhibition @ 10 uM": 4.44}
{"smiles": "Cc1cc(Cl)ccc1OCCCC(=O)Nc1ccc(F)cc1", "% Inhibition @ 10 uM": -5.82}
{"smiles": "COc1ccc(CC(=O)Nc2ccn(Cc3ccccc3)n2)cc1OC", "% Inhibition @ 10 uM": -3.34}
{"smiles": "CC1=C(C(=O)Nc2ccc(Br)cc2)C(c2ccc(Br)cc2)NC(=O)N1C", "note": "(stereo not shown)", "% Inhibition @ 10 uM": -5.59}
{"smiles": "COCCNC(=O)c1cnc2ccc(S(=O)(=O)N3CCc4ccccc4C3)cc2c1O", "% Inhibition @ 10 uM": -4.65}
{"smiles": "CN(CC(=O)Nc1cc(Cl)c(Cl)cc1Cl)S(=O)(=O)c1ccc(F)cc1", "% Inhibition @ 10 uM": 7.97}
{"smiles": "CCC1C(c2ccccc2)NC(c2ccccc2)CC1(O)c1ccc(F)cc1", "note": "(stereo not shown)", "% Inhibition @ 10 uM": 2.92}
{"smiles": "C=C(CS(=O)(=O)c1ccccc1)c1ccccc1", "% Inhibition @ 10 uM": 0.317}
{"smiles": "ClC1=CCC2CN(CCN3CCCCC3)CC2C1", "note": "(stereo not shown)", "% Inhibition @ 10 uM": -6.88}
{"smiles": "N#Cc1c(SCC(=O)c2ccccc2)nsc1SCC(=O)c1ccccc1", "% Inhibition @ 10 uM": 12.8}
{"smiles": "O=Nc1c(O)[nH]c2c(C(=O)O)cccc12", "% Inhibition @ 10 uM": 1.08}
{"smiles": "Cc1cccc(-n2c(C)cc(/C=C3/C(=N)N4C(=NC3=O)SN=C4S(C)(=O)=O)c2C)c1C", "% Inhibition @ 10 uM": 5.06}
{"smiles": "COc1cccc(C2=NOC(C(=O)NCCN3CCOCC3)C2)c1", "note": "(stereo not shown)", "% Inhibition @ 10 uM": 1.62}
{"smiles": "COc1ccc(C2CC(C(F)(F)F)n3ncc(C(=O)N4CCc5ccccc5C4)c3N2)cc1", "note": "(stereo not shown)", "% Inhibition @ 10 uM": -0.0938}
{"smiles": "O=C(CC1(O)C(=O)Nc2c(Cl)cc(Cl)cc21)c1ccccc1O", "note": "(stereo not shown)", "% Inhibition @ 10 uM": 2.4}
{"smiles": "COc1cc(NC(=O)COc2ccc(C)cc2C)cc(OC)c1OC", "% Inhibition @ 10 uM": 6.74}
{"smiles": "COCCNC(=O)c1cc(-c2ccc(O)cc2)on1", "% Inhibition @ 10 uM": 0.723}
{"smiles": "Oc1nc(N(Cc2ccccc2)Cc2ccccc2)nc2nccnc12", "% Inhibition @ 10 uM": -10.8}
{"smiles": "CCCNC(=O)C1CCCN(c2nnc(C)c3c(C)n(-c4ccc(Cl)cc4)nc23)C1", "note": "(stereo not shown)", "% Inhibition @ 10 uM": 5.2}
{"smiles": "CCSC1=C(C#N)C(c2cccs2)C(C(=O)Nc2ccccc2)=C(C)N1", "note": "(stereo not shown)", "% Inhibition @ 10 uM": -2.8}
{"smiles": "COc1ccc(/C=C(/C#N)c2nc(-c3ccc(Br)cc3)cs2)cc1OC", "% Inhibition @ 10 uM": 2.4}
{"smiles": "O=C(Cn1cc(S(=O)(=O)CCN2C(=O)c3ccccc3C2=O)c2ccccc21)N1CCCCCC1", "% Inhibition @ 10 uM": -0.264}
{"smiles": "COc1ccc(CNC(=O)c2noc3c2COc2ccc(C)cc2-3)cc1", "% Inhibition @ 10 uM": -3.17}
{"smiles": "CC(=O)NC(C)c1nc2ccccc2n1Cc1ccccc1C", "note": "(stereo not shown)", "% Inhibition @ 10 uM": -5}
{"smiles": "CC(=O)c1cccc(NC(=O)CSc2ncnc3sc(C)c(C)c23)c1", "% Inhibition @ 10 uM": -4.06}
{"smiles": "COc1ccccc1C1CC(c2c(O)cc(C)oc2=O)=NCCS1", "note": "(stereo not shown)", "% Inhibition @ 10 uM": -0.0372}
{"smiles": "CC(C)c1[nH]nc2c1C(c1ccc3c(c1)OCO3)C(C#N)=C(N)O2", "note": "(stereo not shown)", "% Inhibition @ 10 uM": 0.487}
{"smiles": "COc1ccc(/C=c2\\sc3ncnn3c2=O)cc1", "% Inhibition @ 10 uM": -3.33}
{"smiles": "CC(C)c1ccc(/C=C/C(=O)Nc2ccccn2)cc1", "% Inhibition @ 10 uM": 1.4}
{"smiles": "CN1CCN(Cc2ccc(F)cc2F)CC1", "% Inhibition @ 10 uM": 4.81}
{"smiles": "CCC(=O)Nc1ccc2nc(SCC(=O)Nc3ccccc3OC)sc2c1", "% Inhibition @ 10 uM": -3.46}
{"smiles": "CSc1nc(O)c2c(n1)-c1ccccc1CC21CCCCC1", "% Inhibition @ 10 uM": -0.711}
{"smiles": "CC1(C)CC(=O)C2=C(C1)N(c1ccccc1)C(=O)CC2c1ccc2c(c1)OCO2", "note": "(stereo not shown)", "% Inhibition @ 10 uM": 3.41}
{"smiles": "CC(NC(=O)c1csc2c1CCCC2)C1CCCO1", "note": "(stereo not shown)", "% Inhibition @ 10 uM": -0.312}
{"smiles": "NCCCC12CC3CC(CC(O)(C3)C1)C2", "% Inhibition @ 10 uM": -2.18}
{"smiles": "CCOc1cc(C2C(C#N)=C(N)OC3=C2C(=O)CCC3)c(Br)cc1OCc1ccccc1", "note": "(stereo not shown)", "% Inhibition @ 10 uM": -2.24}
{"smiles": "CCOC(=O)N1CCC(NC(=O)C2=CCN(S(=O)(=O)c3ccc(F)cc3)CC2)CC1", "% Inhibition @ 10 uM": 1.8}
